# Measurements published in article PMC4336329 (PLoS ONE, 2015).
# Hit rate of the full screen: of about 310,000 compounds, about 14,000 (4.5%) showed an effect of 50% or more. The effect is printed as a negative number. The list shows a part of the results.
# Target: human ether-à-go-go-related gene (hERG) potassium channel (human, UniProt Q12809)
# Experiment: primary screen, population patch clamp on CHO cells stably expressing hERG
# 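Note: peak tail current of the secondary pulse compared with the same well before compound.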
# human ether-à-go-go-related gene (hERG) potassium channel, sequence (Q12809 whole entry, looked up): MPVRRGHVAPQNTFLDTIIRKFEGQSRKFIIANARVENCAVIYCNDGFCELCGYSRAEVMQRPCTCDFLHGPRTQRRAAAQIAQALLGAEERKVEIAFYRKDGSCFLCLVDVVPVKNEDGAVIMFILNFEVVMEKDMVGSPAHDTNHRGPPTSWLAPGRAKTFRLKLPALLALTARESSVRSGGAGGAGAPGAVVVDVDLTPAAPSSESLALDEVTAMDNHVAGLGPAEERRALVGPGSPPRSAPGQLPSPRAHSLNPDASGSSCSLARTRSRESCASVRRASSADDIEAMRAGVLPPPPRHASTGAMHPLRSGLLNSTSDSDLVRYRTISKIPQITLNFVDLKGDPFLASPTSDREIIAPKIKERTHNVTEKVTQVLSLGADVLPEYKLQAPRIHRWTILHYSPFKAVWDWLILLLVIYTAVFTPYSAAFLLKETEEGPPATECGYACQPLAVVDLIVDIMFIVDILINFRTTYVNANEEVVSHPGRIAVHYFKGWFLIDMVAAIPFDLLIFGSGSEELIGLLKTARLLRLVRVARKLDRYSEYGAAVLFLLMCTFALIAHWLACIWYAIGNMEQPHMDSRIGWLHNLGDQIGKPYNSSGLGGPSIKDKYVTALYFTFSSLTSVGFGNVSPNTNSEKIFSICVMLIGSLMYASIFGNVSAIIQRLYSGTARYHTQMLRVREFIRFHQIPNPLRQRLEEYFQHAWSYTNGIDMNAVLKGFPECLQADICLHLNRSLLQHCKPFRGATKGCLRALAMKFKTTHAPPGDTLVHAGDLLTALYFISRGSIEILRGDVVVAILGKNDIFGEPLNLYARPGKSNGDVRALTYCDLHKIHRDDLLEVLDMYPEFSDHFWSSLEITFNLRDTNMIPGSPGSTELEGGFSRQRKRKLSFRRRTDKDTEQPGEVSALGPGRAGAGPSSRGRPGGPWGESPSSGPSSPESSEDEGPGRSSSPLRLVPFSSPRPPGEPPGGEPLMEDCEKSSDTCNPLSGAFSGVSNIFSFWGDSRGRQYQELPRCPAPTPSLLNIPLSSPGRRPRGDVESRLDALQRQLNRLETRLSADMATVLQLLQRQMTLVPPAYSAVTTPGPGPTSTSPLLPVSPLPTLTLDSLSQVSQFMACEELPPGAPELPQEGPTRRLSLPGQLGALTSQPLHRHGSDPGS
row,SMILES,"hERG current change (%, negative = inhibition) at 10uM"
1,CC(/C=C\c1cccnc1)=C/C(=O)O,-1.28%
2,CCc1ccc([C@@H]2CC=C(C(=O)O)CN2S(=O)(=O)c2ccc(C)cc2)cc1,8.05%
3,c1ccc2nc3c(nc2c1)OCC1CCCCN31 (stereo not drawn),-14.2%
4,Cc1ccc(/C=N/N2CCN(c3ccccn3)CC2)o1,14.4%
5,OCCC1CN(Cc2ccc3nsnc3c2)CCN1CCc1ccccc1 (stereo not drawn),-82.2%
6,Cc1ccc2[nH]c(-c3ccccc3)c(CN(C)C)c(=O)c2c1,-17.1%
7,CC(=O)Nc1ccc(C(=O)OCC(=O)Nc2ccc([N+](=O)[O-])cc2C(F)(F)F)cc1,7.22%
8,CCOC(=O)c1cc(C(C)(C)C)oc1CNC(=O)c1c(C)oc2c1CCCC2,-18.5%
9,CC(C)CCNc1nc(N)c([N+](=O)[O-])c(N2CCCCCC2)n1,12.1%
10,CCOCCCNC(=O)C(NC(=O)CNC(C)=O)c1ccc(C)cc1 (stereo not drawn),-5.12%
11,CN1C(=O)C(=O)N(c2cccc(C(F)(F)F)c2)C1=O,2.38%
12,COc1cc(/C=N/NC(=O)C(=O)NCc2cccnc2)cc(OC)c1OC,5.17%
13,Cc1cc(C(=O)COC(=O)c2ccc(O)cc2)c(C)n1CC1COc2ccccc2O1 (stereo not drawn),-3.06%
14,COc1ccccc1NC(=S)N1CCC(c2nc3cc(C)c(C)cc3[nH]2)CC1,-21%
15,CC(C)OC(=O)c1sc2nc(-c3ccccc3)ccc2c1N,16.7%
16,O=C(NCCc1ccc(Cl)cc1)C1CCCN(c2ncnc3c2nc2n3CCCCC2)C1 (stereo not drawn),-57.2%
17,Cc1ccc(C(=O)NCC(=O)OCC(=O)NCCNC(=O)COC(=O)CNC(=O)c2ccc(C)cc2)cc1,12.3%
18,COc1ccc(OC)c(NC(=O)c2cnc3n(c2=O)CCS3)c1,3.23%
19,N#Cc1c(NC(=O)CSc2n[nH]c(Cc3ccccc3)n2)oc(-c2ccccc2)c1-c1ccccc1,6.47%
20,CCn1cc(S(=O)(=O)c2ccccc2)c(=O)c2cc(F)c(N3CCN(C)CC3)cc21,9.46%
21,Cc1ccc(OC(=O)c2oc3ccc(F)cc3c2C)c(C)c1,-2.61%
22,COc1cccc(CNC(=O)c2cc(C3CC3)nc3c2cnn3C(C)C)c1,-24.4%

row,SMILES,"hERG current change (%, negative = inhibition) at 10uM"
1,Cc1ccc(-n2c(N)c(C(=O)NCc3cccnc3)sc2=S)cc1,23.5%
2,COc1ccccc1CC(=O)N1CCN(c2ccc([N+](=O)[O-])cc2)CC1,-52%
3,COc1cc(C2Nc3ccccc3C(=O)N2NS(C)(=O)=O)c([N+](=O)[O-])cc1OC (stereo not drawn),4.47%
4,C/C(NC1CCCCC1)=C(/C#N)C(=O)NCCN1CCOCC1,10.1%
5,Nc1ccc(Cl)cc1C(=O)c1ccccc1Cl,-4.91%
6,O=C(COC(=O)/C=C/c1nc2ccccc2s1)Nc1cccc(Cl)c1Cl,7.45%
7,O=[N+]([O-])c1cccc2c(N3CCOCC3)ccnc12,-17.6%
8,CC(C)(C)N1CC(C(=O)O)CC1=O (stereo not drawn),28.9%
9,CC(=O)c1ccc(NC(=O)CSC2=NS(=O)(=O)c3cc(Cl)ccc3N2)cc1,14.7%
10,COc1ccccc1OCC(=O)Nc1ccccn1,8.47%
11,Cc1cc2c(c(C)nn2-c2ccccc2)c(=O)o1,3.22%
12,CCOC(=O)c1c(C(=O)OCC)c(C)n(Cc2cc(OC)c(OC)c(OC)c2)c1C,16.9%
13,COc1cc(NC(=O)C2Cc3ccccc3CN2S(C)(=O)=O)cc(OC)c1 (stereo not drawn),10.9%
14,CCOC(=O)N1CCN(C(=O)CCCOc2ccccc2)CC1,-0.00622%
15,CCN(C(=O)COC(=O)c1ccccc1Cc1ccccc1)C1CCS(=O)(=O)C1 (stereo not drawn),-27.6%
16,CCOC(=O)C(NC(=O)CC)(Nc1nc2c(s1)CCCC2)C(F)(F)F (stereo not drawn),0.445%
17,CCOC(=O)c1c(C)[nH]c(C)c1S(=O)(=O)N(C)CC(=O)Nc1ccccc1C,14.4%
18,Cc1ccc(-n2cccn2)c([C@@H]2C[C@H]3CN(C)C(=O)[C@]34CCCN24)c1,-61.1%
19,CC(=O)c1cccc(NC(=O)CN(C)S(=O)(=O)c2ccc3c(c2)CCC(=O)N3)c1,-5.16%
20,O=C(COC(=O)c1ccc(S(=O)(=O)N2CCCC2)cc1)Nc1cccc(F)c1,8.69%
21,CCCCC(=O)Nc1ccc2oc(-c3cccnc3)nc2c1,-10%
22,O=C(Nc1ccccc1)C1=C[C@H](c2ccc(C(F)(F)F)cc2)C[C@H](OCc2ccc(CO)cc2)O1,5.62%

row,SMILES,"hERG current change (%, negative = inhibition) at 10uM"
1,Cc1cc(C)c(C(N)=O)c(NC(=O)Nc2ccccc2Cl)n1,-7.07%
2,CCCCC(NC(=O)c1ccc(Cl)cc1)C(=O)O (stereo not drawn),8.48%
3,O=C(CCCN1C(=O)CSc2ncccc21)N1CCN(Cc2ccccc2)CC1,6.42%
4,CCOCCCn1c(=S)[nH]c2cc3c(cc2c1=O)OCO3,11.6%
5,CC(NC(=O)COC(=O)CNS(=O)(=O)/C=C/c1ccccc1)c1ccccc1 (stereo not drawn),-7.78%
6,CN(C)c1ccc(-c2nc3ccccc3n2C)cc1,-49.9%
7,Cc1ccc(C)c(S(=O)(=O)NC(C)C(=O)Nc2ccc(-c3nc4ccccc4s3)cc2)c1 (stereo not drawn),2.9%
8,Cn1c(N)nc2ccccc2c1=O,1.16%
9,COc1cc([N+](=O)[O-])ccc1NC(=S)NNC(=O)CCC(=O)Nc1ccccc1Cl,-7.41%
10,COc1ccc(NC(=O)Nc2ccc(C)cc2Br)c(OC)c1,27.4%
11,CC(C(=O)NC1CCCC1)N1CCN(S(=O)(=O)c2ccc(C(C)(C)C)cc2)CC1 (stereo not drawn),-19.8%
12,Cc1c(Cl)ccc2c1NC(=O)[C@]21N[C@@H](CCC(N)=O)[C@H]2C(=O)N(c3ccc(F)cc3)C(=O)[C@H]21,4.75%
13,COc1ccc(-c2[nH]nc3c2C(c2ccc(OC(=O)N4CCOCC4)cc2)C(C#N)=C(N)O3)cc1 (stereo not drawn),-3.71%
14,Clc1ccc(-c2nnc3cccc(Cl)n23)c(Cl)c1,-2.44%
15,COc1cccc(N(CC(=O)N2CCN(C)CC2)S(=O)(=O)c2ccc(C)cc2)c1,-26.5%
16,CCOC(=O)N1CCN(C(=O)/C=C/c2ccc3c(c2)OCO3)CC1,-1.52%
17,O=C(NC(=S)Nc1ccc(S(=O)(=O)Nc2ccccc2)cc1)C1CC1,14%
18,Cn1c(-c2cc3ccc(OC(=O)C(C)(C)C)cc3oc2=O)nc2ccccc21,-0.599%
19,CCCCOc1nc(N2CCOCC2)nc(C)c1[N+](=O)[O-],0.42%
20,COc1ccc(-c2nnc(SCC(=O)NCC3CCCO3)o2)cc1 (stereo not drawn),23.4%
21,O=C(NC1CCCCC1)C(c1cccs1)N(Cc1cccs1)C(=O)c1ccco1 (stereo not drawn),-12.5%
22,COC(=O)c1ccc(CSc2ccccc2C)o1,7.92%

row,SMILES,"hERG current change (%, negative = inhibition) at 10uM"
1,CCOC(=O)N1CCC(=NNS(=O)(=O)c2cccc([N+](=O)[O-])c2)CC1,2.61%
2,COc1ccc(C2(CCN=Cc3ccc(N(C)C)cc3)CCOC(C)(C)C2)cc1 (stereo not drawn),-2.1%
3,O=C(NCc1cccnc1)c1ccc2c(c1)C(=O)N(Cc1ccccc1)C2=O,-20.6%
4,O=C(Nc1ccc(CN2CCOCC2)cc1)c1ccc(Br)o1,1.56%
5,CN(C)CCCN(C(=O)C1COc2ccccc2O1)c1nc2ccc(F)cc2s1.Cl (stereo not drawn),-75.4%
6,Cc1cc(SCC(=O)c2ccc3c(c2)OCO3)nc2ccccc12,-6.85%
7,CN(CC(=O)Nc1ccc(F)c(F)c1F)c1ncnc2sccc12,-1.44%
8,CCCn1c(C(C)C)n[nH]c1=S,15.6%
9,Fc1cccc(NCc2cn3ccccc3n2)c1,-17.6%
10,CCOC(=O)N1CCN(C(=O)c2ccc3c(=O)n(Cc4ccccc4OC)c(=S)[nH]c3c2)CC1,-33.7%
11,CCOC(=O)C1=C(N)OC2=C(C(=O)CCC2)C12C(=O)N(CC(N)=O)c1ccccc12 (stereo not drawn),3.15%
12,O=C(O)c1ccc(S(=O)(=O)c2ccc3c(c2)C(=O)N(c2ccc(Br)cc2)C3=O)cc1,9.12%
13,CCC1(C)Cc2c(sc3c2c(=O)n(C)c2nnc(SCc4ccc5c(c4)OCO5)n32)CO1 (stereo not drawn),-15.7%
14,COc1ccc(CCC(=O)N2CCN(S(=O)(=O)c3ccc(C)cc3)CC2)cc1,-29%
15,O=C(COC(=O)CCC(=O)c1ccc(F)cc1)Nc1cccc(S(=O)(=O)N2CCOCC2)c1,-41.6%
16,COc1ccc(NC(=O)CSc2ccc(-c3cccnc3)nn2)c(OC)c1,-11.2%
17,Cc1ccc(S(=O)(=O)NCCC(=O)N2CCCCCCC2)cc1,10.5%
18,COc1ccc(Nc2ncnc3ccc(Br)cc23)c(OC)c1,-7.88%
19,Cc1ccc(NC(=O)CC(C)CC2=NS(=O)(=O)c3ccccc3N2)cc1 (stereo not drawn),10%
20,COc1cc(C(=O)Oc2cccc(C=O)c2)cc(OC)c1OC,-1.22%
21,O=C(Cn1[nH]c(=O)c2ccccc2c1=O)OCC(=O)c1ccccc1Cl,-0.463%
